Experimental data from article PMC6919601, “Identification of Plasmodium dipeptidyl aminopeptidase allosteric inhibitors by high throughput screening” (PLoS ONE, 2019).
Screen size: about 110,000 compounds; about 230 (0.21%) showed an effect of 50% or more. The list shows a part of the results.

Target: DPAP1 (Plasmodium falciparum, UniProt Q8IIJ9)
Test: primary screen, percent inhibition; read by cleavage of a fluorogenic dipeptide substrate; higher = more effect of the substance
Design: species or system P. falciparum D10 trophozoite lysates; single well
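Further: 30 min substrate incubation versus DMSO and 10 µM JCP410 controls.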

Chain of DPAP1 (Q8IIJ9 whole entry, looked up): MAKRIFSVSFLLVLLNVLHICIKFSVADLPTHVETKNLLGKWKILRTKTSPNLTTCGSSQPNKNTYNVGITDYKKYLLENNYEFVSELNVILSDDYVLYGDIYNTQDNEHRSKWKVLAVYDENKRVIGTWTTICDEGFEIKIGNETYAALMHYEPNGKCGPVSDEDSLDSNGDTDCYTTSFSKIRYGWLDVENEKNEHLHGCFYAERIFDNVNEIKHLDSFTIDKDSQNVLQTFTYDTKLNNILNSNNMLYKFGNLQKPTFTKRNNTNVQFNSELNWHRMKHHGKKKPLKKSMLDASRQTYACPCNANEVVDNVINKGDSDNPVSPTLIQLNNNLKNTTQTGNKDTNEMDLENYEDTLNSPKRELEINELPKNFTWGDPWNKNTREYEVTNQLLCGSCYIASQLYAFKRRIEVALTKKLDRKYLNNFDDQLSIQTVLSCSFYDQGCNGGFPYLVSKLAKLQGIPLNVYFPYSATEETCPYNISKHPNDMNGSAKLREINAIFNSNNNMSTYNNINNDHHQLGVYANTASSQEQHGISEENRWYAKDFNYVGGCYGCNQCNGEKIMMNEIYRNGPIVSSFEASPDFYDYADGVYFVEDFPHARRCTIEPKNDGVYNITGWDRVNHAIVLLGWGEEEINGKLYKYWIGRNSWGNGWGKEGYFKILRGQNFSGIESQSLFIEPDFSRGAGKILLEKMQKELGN

Compound	% Inhibition @ 10 uM [%]
CCS(=O)(=O)C1=NN2C(=N)/C(=C\c3ccc(OC(C)c4ccccc4)cc3)C(=O)N=C2S1 (stereo not shown)	-1.54
O=c1c(Cc2ccc(F)cc2)c(O)nc2n1CCCS2	-3.95
CCN1CCN(c2c(C(=O)c3ccc(C)c(C)c3)cnc3cc4c(cc23)OCO4)CC1	-5.54
CN1C(=O)C(Cc2c[nH]c3ccccc23)NC1=S (stereo not shown)	-0.0369
CCOc1nc(-c2ccccc2)c2cc(C)ccc2n1	0.51
COc1cc(/C=C/c2noc(-c3ccccc3O)n2)cc(OC)c1OC	1.72
CS(=O)(=O)c1ccc2nc(NC(=O)C3CCCCC3)sc2c1	-1.44
CC1(C)CC(=O)C2=C(C1)OC1=C(C(=O)CC(C)(C)C1)C2c1cccc2ccccc12	-0.127
COc1cccc(-n2nnc3c(=O)n(Cc4c(F)cccc4Cl)cnc32)c1	1.24
COc1ccc(C2(O)CSC3=C(C#N)C(c4cccc(O)c4)CC(=O)N32)cc1OC (stereo not shown)	3.24
CCCCN(C)Cc1ccc(O)cc1	-4.75
CN1CCC(N(C)CC2=CC[C@H]3C[C@@H]2C3(C)C)CC1	2.1
Cc1ccccc1-c1nc(CS(=O)CC(=O)NCc2ccccc2)c(C)o1 (stereo not shown)	-2.85
O=C(O)c1ccc(-c2nc(-c3ccccc3)c(-c3cccs3)[nH]2)cc1	-2.87
Cc1ccc(Cn2nnc3c(=O)n(CC(=O)N4CCC(C)CC4)cnc32)cc1	-3.94
O=[N+]([O-])c1ccc(Oc2c(-c3ccccc3)nc(Cl)nc2-c2ccccc2)cc1	-3.6
CCOC(=O)c1c(C)[nH]c(C)c1S(=O)(=O)N1CCC(C(=O)NCCc2cccs2)CC1	0.706
O=C(O)/C=C\C(=O)NCc1ccco1	3.15
CC1=C(c2ccc(C(C)C)cc2)S(=O)(=O)N=C1NCc1cccs1	2.27
CCN(Cc1nc(-c2cccc(C)c2)no1)S(=O)(=O)c1ccc(OC)cc1	-6.43
COC(=O)c1c(NC(=O)c2cc(OC)c(OC)c(OC)c2)sc2c1CCC(C)C2 (stereo not shown)	4.35
CC(=O)Nc1ccc(S(=O)(=O)n2nc(-c3ccc(C)cc3)nc2N)cc1	-6.39
CC(=O)CSC(=S)N(C)Cc1cccs1	-1.86
COc1cc(OC)cc(C2NCCC3(O)CCCCC23)c1 (stereo not shown)	-7.39
O=C(c1ccc(S(=O)(=O)N2CCCCCC2)cc1)N1CCN(c2ccccn2)CC1	8.19

Compound	% Inhibition @ 10 uM [%]
Cc1ccc2cnn(CC(=O)NCCc3ccc(Cl)cc3)c2c1	-1.11
Cc1ccc(N(CC(=O)NCC2CCCO2)S(=O)(=O)c2ccc(Cl)cc2)cc1C (stereo not shown)	-3.33
CCOc1ccc(CNC(=O)c2ccc3c(c2)ncn3C2CCCC2)cc1OC	2.05
Cc1cc(C)c(C(N)=O)c(Nc2cccc(Cl)c2)n1	-5.13
Cc1nn(CC(=O)N2CCC(Cc3ccccc3)CC2)c(=O)c2nn(-c3ccccc3)c(C)c12	1.11
COc1cc(NC(=O)c2cc3nc(C(F)F)cc(C(F)F)n3n2)c(OC)cc1Cl	-2.98
Cc1ccc(OCCCN2CCCC2)cc1	2.6
CC(Nc1nc2c(S(=O)(=O)c3cccc(Cl)c3)nnn2c2ccsc12)c1ccccc1 (stereo not shown)	-2.85
COc1ccccc1Cc1nnc(C(N)=O)o1	-3.34
O=Cc1ccc(C(=O)O)s1	-3.53
Cc1cc(C(=O)O)c(C)cc1C(=O)O	-1.86
COc1cc2nc(SCC(=O)NCc3ccccc3Cl)n3nc(C)nc3c2cc1OC	-2.29
COc1ccc2c(CNCCc3ccc(Cl)cc3)c(C(=O)O)n(C)c2c1	-4.76
CC(=O)Nc1ccc(CN2CCOCC2)cc1	-6
CC(C)CC(NC(=O)C1CCNCC1)C(=O)N1CCN(S(=O)(=O)c2ccc3ccccc3c2)CC1 (stereo not shown)	-9.37
O=S(=O)(c1ccc2ccccc2c1)N1CCOCC1	3.18
Cc1[nH]c2ccccc2c1CN1CCN(Cc2ccccc2)CC1	0.708
Cc1cccc(C(=O)Nc2sc3c(c2C(N)=O)CCCCCC3)c1	4.12
O=C(Cn1cc(C(=O)C2CC2)c2ccccc21)NCCc1c[nH]c2ccccc12	1.72
COC(=O)c1ccc(-c2ccc(C(=O)N[C@@H](Cc3c(F)cccc3F)C(=O)NCC#N)cc2)c(Cl)c1	-1.5
CNC(=O)/C(C#N)=C/c1c(Oc2ccccc2Cl)nc2c(C)cccn2c1=O	-3.23
Cc1ccc(Cn2c(=O)c3cccnc3n(CC(=O)c3ccc(Br)cc3)c2=O)cc1	-3.44
Cc1cccc(C)c1NC(=O)c1ccc(Cn2cc(Cl)cn2)o1	-4.75
Cc1ccc(NC(=O)c2ccc(Cl)cc2Cl)cc1O	-2.65
O=S(=O)(c1ccccc1)c1ccc(N2CCCCCC2)cc1	-0.712

Compound	% Inhibition @ 10 uM [%]
COc1ccc(/C=C2\Sc3nc(-c4ccccc4)nc(C)c3C2=O)cc1	-0.994
COc1cccc(OC)c1C(=O)Nc1nc2ccccc2s1	0.361
Cc1ccc2nc(N(CCCN(C)C)C(=O)c3cc4ccccc4oc3=O)sc2c1	-1.87
Clc1ccc(CN2C3=NCCCN3c3ccccc32)c(Cl)c1	2.45
CCOC(=O)C1=C(C(F)(F)F)Nc2ncnn2C1c1ccc(OC)cc1 (stereo not shown)	-1.62
COc1ccc(C2NCCc3[nH]cnc32)c(OC)c1 (stereo not shown)	-4.43
CC(C)CCn1c(C(C)O)nc2ccccc21 (stereo not shown)	-3.63
COc1ccc(N2CC(C(=O)Nc3ncccc3C)CC2=O)cc1 (stereo not shown)	2.42
CCCN1C(=O)/C(=C/c2ccc(C)o2)S/C1=N/c1ccc(OC)cc1	6.73
Cc1nc2ccc(S(=O)(=O)NCC(=O)N3CCc4ccccc4C3)cc2s1	-6.09
CCOc1cccc(C(=O)Nc2nnc(-c3ccc4c(c3)OCO4)s2)c1	-1.93
CCOC(=O)C1=C(CS(=O)(=O)c2ccc(C)cc2)NC(=O)NC1c1cc(OC)c(O)c(OC)c1 (stereo not shown)	1.24
CCCCCCN1C(=O)C(O)=C(C(C)=O)C1c1ccc(OC)cc1 (stereo not shown)	-2.39
CC(C)c1ccc(C2c3c(oc4ccccc4c3=O)C(=O)N2Cc2ccc3c(c2)OCO3)cc1 (stereo not shown)	-5
O=c1c2cc(Br)ccc2ncn1Cc1ccccc1Cl	1.86
COc1ccc(CC(=O)NCC2CCCO2)cc1 (stereo not shown)	-8.88
CC(C)Oc1ccc(CNC(=O)C2CCCN(c3nn4cc(-c5ccc(F)cc5)nc4s3)C2)cc1 (stereo not shown)	0.95
Cc1cc(C)n(C(=O)COc2ccc(Br)cc2C)n1	-1.81
O=C(O)c1ccccc1C(=O)Nc1ccc(N2CCN(c3ccccc3)CC2)cc1	0.214
O=C(Cc1ccccc1)NCc1nc2ccccc2n1Cc1ccccc1F	-4.86
O=C(Nc1ccc(Nc2ccccc2)cc1)c1ccccc1	-4.82
O=C1c2cc(Cl)c(Cl)cc2C(=O)N1CNc1ccccc1	-9.67
CCOC(=O)C1CCN(Cc2ccc(C(F)(F)F)cc2)CC1	-0.127
O=C(Nc1ccc(NC(=O)c2cccs2)cc1)c1cc2ccccc2o1	17.9
O=c1cc(-c2ccc(O)c(O)c2)oc2ccccc12	-4.65

Compound	% Inhibition @ 10 uM [%]
COc1ccccc1/C=C(\C#N)c1nc(-c2ccc(C)cc2)cs1	5.68
Cc1ccc(CNC(=O)Cn2c(=O)n(Cc3ccccc3)c(=O)c3c(C)c(C)sc32)cc1	10.4
CCCCCn1c(=O)c(C(=O)Nc2ccc(F)cc2)c(O)c2ccccc21	-4.76
C=CCc1c(C)nc2nc(SCC(=O)NCCc3ccccc3)nn2c1C	4.36
OCC1CCCCN1Cc1ccnc2ccccc12 (stereo not shown)	-3.5
CC1(C)CC2=NCN(CCCN3CCOCC3)CC2=C(O)C1	3.93
O=C(Nc1c(C(=O)c2ccc(F)cc2)oc2ccccc12)c1cccs1	-3.14
O=C(O)C1Cc2ccccc2CN1S(=O)(=O)c1cccs1 (stereo not shown)	-0.251
c1ccc(CCNC2CCCCCC2)nc1	3.15
CC(C)C[C@H](NC(=O)c1ccc(N2CCN(C)CC2)cc1)C(=O)NC1(C#N)CCSC1 (stereo partly shown)	-1.41
COc1cc(CNC(=O)Cn2nc(C)c3c(C)n(-c4ccccc4)nc3c2=O)cc(OC)c1OC	10.4
Cc1ccc(-c2cn3nc(N4CCCC(C(=O)NCCC5=CCCCC5)C4)sc3n2)cc1 (stereo not shown)	4.91
COc1ccc(-c2noc(NC3CCCc4ccccc43)n2)cc1OC (stereo not shown)	3.27
Cc1nn(-c2ccccc2)c(C)c1CC(=O)N(c1ccccc1)c1ccccc1	1.7
CC1(C)CC(=O)c2cc(-c3ccccc3)n(-c3ccccc3F)c2C1	0.132
N#CCc1ccc(NC(=O)CCc2ccccc2)cc1	1.72
COc1ccc(CN2CCN(Cc3ccc(OC)c(Br)c3)CC2)cc1	3.7
COc1ccc(C(=O)NCCn2cc(SCC(=O)NC3CCCCC3)c3ccccc32)cc1	0.231
O=C(Nc1c(Cl)cc(Cl)cc1C(=O)NCC1CCCO1)c1ccco1 (stereo not shown)	-1.41
COc1ccccc1-c1c(C(F)(F)F)oc2c(CN(C)C)c(O)ccc2c1=O	1.58
Cn1cccc1Cc1nnc(SCC(=O)NCc2ccco2)n1-c1ccccc1	-3.1
COc1ccccc1/C=C/c1nc(C#N)c(NCCN(C)C)o1	-4.39
CCC(CC)C(=O)N1CCN(C(=O)C(CC)CC)CC1	-9.31
CC(=O)Nc1nc(NC(C)=O)n(-c2ccccc2)n1	-1.6
O=C(Cc1ccccc1)NCCc1nc2ccccc2[nH]1	-0.0235
